The whole screen tested about 7,900 compounds, of which about 400 (5.1%) showed an effect of 50% or more. The list shows a part of the results.
Each molecule was assayed against Parkinson's disease protein 7 (PARK7/DJ1) (human, UniProt Q99497) (assay: primary screen, percent inhibition; read as competition with a fluorescent probe by fluorescence polarization; higher = more effect of the substance). Conditions: 100 µM.
Chain of Parkinson's disease protein 7 (PARK7/DJ1) (Q99497 whole entry, looked up, the tested form may be a part): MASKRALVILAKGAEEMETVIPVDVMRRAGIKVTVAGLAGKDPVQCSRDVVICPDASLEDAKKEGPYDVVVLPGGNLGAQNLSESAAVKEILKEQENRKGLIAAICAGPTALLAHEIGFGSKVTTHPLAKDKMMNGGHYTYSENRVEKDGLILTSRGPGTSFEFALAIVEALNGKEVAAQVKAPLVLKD
Method in brief: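 Covalent fragments at 100 μM final were incubated 2 h with 0.2 μM PARK7, then 20 nM probe JYQ-107 added for a further 2 h. Fluorescence polarization read at 480/520 nm; relative FP loss versus reference controls gave remaining enzyme activity.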
Molecule `CC(C)(C)OC(=O)N1CC[C@]2(B3OC(C)(C)C(C)(C)O3)C[C@@H]2C1` (racemic) has an Inhibition % of 1.09%. `CS(=O)(=O)Oc1ccc(C(F)(F)F)cc1` showed an Inhibition % of 6.55%. With `CC1(C)OB(c2cnn(-c3ccncc3)c2)OC1(C)C` the Inhibition % was 6.06%. Work on `C=CC(=O)NCC1CCC(C(=O)N(C)C)O1` (centres unmarked) yielded an Inhibition % of 6.66%. With `O=C(Oc1ccc(Cl)c2cccnc12)N1CCOCC1` the Inhibition % was 11.1%. In the case of `Cc1cc(C=C(C#N)C(=O)NC2CC2)c(C)n1C1CC1`, the Inhibition % is reported as 9.94%. `C=C(Cl)CSc1nc(N)cc(N)n1` was tested, and the Inhibition % was 18.5%. For `Cn1nccc1C12CCOCC1O2` (centres unmarked), the Inhibition % was 9.22%. `C=CC(=O)N1CCC(Cc2ccc(OC)cc2)CC1` gave an Inhibition % of 8.81%. `OC(CC1CO1)c1ccccc1` (centres unmarked) was tested, and the Inhibition % was 6.87%. With `N#Cc1ccc(N2CCCC(c3nccs3)C2)cn1` (centres unmarked) the Inhibition % was -0.784%. Work on `CC(C)(C)OC(=O)N1CCCC(S(=O)(=O)F)C1` (centres unmarked) yielded an Inhibition % of 10.7%. Work on `CC1(C)OB(c2cccc(Cl)c2)OC1(C)C` yielded an Inhibition % of -3.11%. For `C=CC(=O)Nc1ccc2c(c1)OCCCO2`, the Inhibition % was 3.17%. With `C=CC(=O)NC1CCc2nc(CC)nn2C1` (centres unmarked) the Inhibition % was 10.4%. With `N#Cc1ccc(S)nc1` the Inhibition % was 31.9%. `COc1ccc(S(=O)(=O)n2ccc(C)n2)cc1C` showed an Inhibition % of 2.32%. For `C=CC(=O)NC1CCCc2nc(C)ncc21` (centres unmarked), the Inhibition % was 2.84%. Work on `C=CCNC(=O)C(C#N)=Cc1cccc(C)c1` yielded an Inhibition % of 10.9%. With `Cl.O=C(CCl)Nc1nc(CN2CCCCC2)cs1` the Inhibition % was 3.25%. `C=CC(=O)NC1CCN(C(C)(C)C)C1=O` (centres unmarked) showed an Inhibition % of 4.3%. For `O=C(CCl)NCc1ccc(OC(F)(F)F)cc1`, the Inhibition % was 5.21%. `C=CC(=O)N1CCN(CC(C)C)C(=O)C1` gave an Inhibition % of 0.18%. `Cc1csc2c(=O)n(CC3OCCO3)cnc12` was tested, and the Inhibition % was 8.19%. Work on `Cl.O=S1(=O)C=CC(NCc2ccccc2)C1` (centres unmarked) yielded an Inhibition % of 9.33%. `COC(=O)c1ccc(NC(=O)CCl)cc1` gave an Inhibition % of 60.9%. Molecule `C=CC(=O)Nc1cnn(-c2ccncc2)c1C(F)F` has an Inhibition % of 16.6%. `C=CC(=O)NC1CCCOc2c(Cl)cccc21` (centres unmarked) was tested, and the Inhibition % was 5.57%. In the case of `C=CC(=O)N1CCC(n2cc(C)cn2)CC1`, the Inhibition % is reported as 10.4%. Work on `CCOC1CC(Nc2ccc(C#N)nc2)C12CCC2` (centres unmarked) yielded an Inhibition % of 1.47%. In the case of `NC(=O)Nc1ccc(C(=O)CCl)cc1`, the Inhibition % is reported as 89.6%. Molecule `Cc1noc(C(C)NC(=O)Cc2ccc(S(=O)(=O)F)cc2)n1` (centres unmarked) has an Inhibition % of 41.8%. `COc1cc(C)c(S(=O)(=O)n2nc(C)cc2C)cc1C` was tested, and the Inhibition % was 2.71%. Work on `C=CC(=O)N[C@H]1C[C@H](SC)C1` yielded an Inhibition % of 8.6%. For `Cc1nc(C=CC(=O)N2CC(C)NC(C)C2)cs1` (centres unmarked), the Inhibition % was 14.8%. With `C=CC(=O)N1CCC(C(N)=O)(c2ccccc2)CC1` the Inhibition % was 6.37%. `CC1CC(Sc2nncn2C(C)C)C(=O)O1` (centres unmarked) was tested, and the Inhibition % was 2.25%. Molecule `C=CC(=O)NCc1ccc(Cn2cccn2)cc1` has an Inhibition % of 5.08%. Work on `C=CC(=O)NCCc1nc(C)oc1C` yielded an Inhibition % of 8.23%. With `CN(C)C(=O)Oc1ccc(OC(=O)N(C)C)cc1` the Inhibition % was 1.92%. Molecule `CC1CCN(C(N)=C(C#N)C(=O)Nc2ccccc2)CC1` has an Inhibition % of 7.29%. In the case of `C=C(C#N)C(O)c1cccnc1` (centres unmarked), the Inhibition % is reported as 0.585%. Molecule `C=CC(=O)NC1CCN(Cc2ccc(F)cc2)CC1` has an Inhibition % of 16%. Work on `C=CC(=O)NCCc1cscn1` yielded an Inhibition % of 5.76%. `CC1(C)OB(c2cccc(F)c2C(F)(F)F)OC1(C)C` showed an Inhibition % of 10.8%. For `C=CC(=O)N1CSCC1C(=O)N1CCCC1` (centres unmarked), the Inhibition % was 29.2%. `C=CC(=O)N1CCc2cc(OCC)ccc2C1` gave an Inhibition % of 17.1%. Work on `FC(F)(F)c1ccnc(S)n1` yielded an Inhibition % of 25.1%. `CNc1cc(B2OC(C)(C)C(C)(C)O2)ccn1.Cl` gave an Inhibition % of 6.33%. `C=C(C)CN(CC)C(=O)Cn1cnc(C#N)n1` was tested, and the Inhibition % was 6.74%. With `C=CC(=O)N1CC(CC)OC2(CCOC2)C1` (centres unmarked) the Inhibition % was 0.956%. Work on `C=CC(=O)N1CCN(Cc2ccco2)CC1` yielded an Inhibition % of 5.39%. `O=C1OCCC1N1CCC(c2nc3ccccc3o2)CC1` (centres unmarked) showed an Inhibition % of 4.11%. Work on `N#Cc1ccc(NC(=O)CN2CCSC2=O)cc1Cl` yielded an Inhibition % of 4.25%. With `O=S(=O)(F)c1cc(Br)ccc1Cl` the Inhibition % was 88.4%. In the case of `C=CC(=O)N1CCC(Cn2ccnn2)CC1`, the Inhibition % is reported as 3.98%. Work on `CC(C)(C)OC(=O)N1C2C=C(B3OC(C)(C)C(C)(C)O3)CC1CC2` (centres unmarked) yielded an Inhibition % of 0%. `N#Cc1ccc(N2CCC3(CCOC3)C2)cn1` (centres unmarked) showed an Inhibition % of -4.97%. In the case of `O=C(c1cccnc1S)N1CCC2(CCOC2)C1` (centres unmarked), the Inhibition % is reported as 4.25%. `Cc1nc2sccn2c1C=C(C#N)c1ccccn1` was tested, and the Inhibition % was 1.34%. Molecule `O=C(CCl)Nc1nncs1` has an Inhibition % of 4.4%. `C=CC(=O)N1CCOC2CCN(Cc3ccccc3)CC21` (centres unmarked) was tested, and the Inhibition % was 5.11%. `N#CSc1ccc(N2CCOCC2)cc1` gave an Inhibition % of 8.87%. `O=c1[nH]c(-c2cccs2)no1` was tested, and the Inhibition % was 3.67%. With `C=CC(=O)N1C[C@@H](C)[C@H](C(=O)N2CCOCC2)C1` (racemic) the Inhibition % was 5.41%. With `CC1CC(N(C)Cc2ccc3c(c2)OCO3)C(=O)O1` (centres unmarked) the Inhibition % was 3.52%. In the case of `C=CC(=O)NCC1CCC2(CCC2)CO1` (centres unmarked), the Inhibition % is reported as 5.32%. `CC1(C)OB(c2ccc(N)cc2F)OC1(C)C` was tested, and the Inhibition % was 5.89%. In the case of `CN(C)Cc1ccc(CNC(=O)CCl)cc1.Cl`, the Inhibition % is reported as 13.8%. `Cn1cc(C=CC(=O)N2CCc3ccccc3C2)cn1` showed an Inhibition % of 11.8%. In the case of `CCc1cccc(N(C#N)CCC(N)=O)c1`, the Inhibition % is reported as 0.798%. In the case of `Cc1cccc(NC(=O)N2CCCC23CCOC3=O)n1` (centres unmarked), the Inhibition % is reported as 11.8%. With `O=C(CCl)NC(=O)NC12CC3CC(CC(C3)C1)C2` the Inhibition % was 0.699%. With `C=CC(=O)N1CCN(c2ncnc3sc(C)cc23)CC1` the Inhibition % was 0.554%. Work on `O=C(CCl)Nc1cc(C(F)(F)F)ccc1N1CCCC1` yielded an Inhibition % of 0.54%. Molecule `O=C(O)c1ccc(SC2CCOC2=O)cc1` (centres unmarked) has an Inhibition % of 2.85%. `N#Cc1ncn(CC(=O)c2cccc(Cl)c2Cl)n1` showed an Inhibition % of 7.31%. Work on `C=CC(=O)NCc1nc(C)c2ccccc2n1` yielded an Inhibition % of -0.293%. For `C=CC(=O)N1CCN(C)C(=O)C1(C)C`, the Inhibition % was 11.1%. For `O=c1c2ccccc2nc(S)n1CCO`, the Inhibition % was -0.125%. `C=CC(=O)Nc1ccc2nc(N3CCOCC3)oc2c1` was tested, and the Inhibition % was 5.38%. `CC(C)n1cc(B2OC(C)(C)C(C)(C)O2)cn1` gave an Inhibition % of 3.03%. `C=CC(=O)N1CCC[C@@H]2O[C@H](c3ccccc3)C[C@@H]21` (racemic) was tested, and the Inhibition % was 5.3%. Molecule `O=C1C[C@H](NS(=O)(=O)c2cnc3ccsc3c2)CO1` has an Inhibition % of 5.74%. `CCN(C(=O)Cn1cnc(C#N)n1)C1=CCCCC1` gave an Inhibition % of 6.47%. `C=CC(=O)N1CCOC2(CCc3ccccc32)C1` (centres unmarked) was tested, and the Inhibition % was 3.26%. `N#Cc1ccc2cc(N)ccc2n1` showed an Inhibition % of 101%. Work on `O=C(CCl)c1cn(-c2ccc(F)cc2)nn1` yielded an Inhibition % of 5.02%. Work on `C=CC(=O)N1CC(C)(c2ccccc2F)C1` yielded an Inhibition % of 28.6%. `CCN1C(=O)C(C)SC1=C(C#N)C(=O)NCc1ccco1` (centres unmarked) was tested, and the Inhibition % was 0.0122%. Work on `O=C1SCCN1CC(=O)N1CCc2ccccc21` yielded an Inhibition % of 3.23%. `C=CC(=O)NC(CO)c1ccsc1` (centres unmarked) showed an Inhibition % of 11%. `C=CC(=O)NC(c1cnn(C)c1)C(F)(F)F` (centres unmarked) showed an Inhibition % of 3.17%. Work on `Cc1nnc(CN(C#N)c2ccc(F)c(Cl)c2)o1` yielded an Inhibition % of 5.26%. `Cc1cccc(C)c1N1C(=O)CN=C1S` was tested, and the Inhibition % was 1.33%. `CC1(C)OB(c2ccc(CSc3ncn[nH]3)cc2)OC1(C)C` showed an Inhibition % of 11.5%. `Cc1ccc(OC(=O)N2CCOCC2)cc1` showed an Inhibition % of 5.06%. `O=C(OCc1ccccc1)N1CCCC2(CO2)C1` (centres unmarked) was tested, and the Inhibition % was 5.34%. With `Cn1ncc(C2CC2)c1B1OC(C)(C)C(C)(C)O1` the Inhibition % was 4.29%. For `CC1=NOC(=O)C1CC(=O)O` (centres unmarked), the Inhibition % was 99%. `C=CC(=O)N1CCC(C(=O)O)(c2ccc(C)cc2)CC1` was tested, and the Inhibition % was 7.61%. Work on `CCN1CCN(c2oc(C3CC3)nc2C#N)CC1` yielded an Inhibition % of 1.62%. With `Cc1cccc(OCCNC(=O)n2ccnc2)c1` the Inhibition % was 92.6%. With `N#CC1(NC(=O)CCl)CCCCC1` the Inhibition % was 21.5%. `N#Cc1ncn(CC(=O)Nc2cc(F)ccc2F)n1` gave an Inhibition % of 11.5%. Work on `C=CC(=O)NCc1nc2c(s1)COCC2` yielded an Inhibition % of 5.36%. `C=CC(=O)N1CCC(C(=O)N(C)c2ccccc2)C1` (centres unmarked) gave an Inhibition % of 9.62%. With `N#Cc1c(CN2C(=O)CCC2=O)cn2ccccc12` the Inhibition % was 11.1%. In the case of `CSc1ccc(CN(C)C(=O)CCl)cc1`, the Inhibition % is reported as 14.4%. Work on `O=C(Nc1ccccc1)NC1CN(c2ccccc2)C1=O` (centres unmarked) yielded an Inhibition % of 5.74%. Work on `O=C(N[C@H]1c2ccccc2C[C@H]1O)c1cccnc1S` yielded an Inhibition % of 32.2%. Molecule `Cl.O=C(CCl)N1CCN(Cc2ccsc2)CC1` has an Inhibition % of 7.84%. For `CNC(=O)c1ccc(B2OC(C)(C)C(C)(C)O2)c(Cl)c1`, the Inhibition % was 7.89%. `CCCc1nnc(NS(=O)(=O)c2cccc(S(=O)(=O)F)c2)o1` gave an Inhibition % of 98.8%. Work on `Cc1ccc(C=C(C#N)C(N)=O)o1` yielded an Inhibition % of 7.03%. `C=CC(=O)N1CCSC(CC)(CC)C1` showed an Inhibition % of 13.1%. Molecule `O=C(O)C=CC(=O)Nc1ccc2[nH]ncc2c1` has an Inhibition % of 77.7%. `C=CC(=O)N1CCCCC(SCC)C1` (centres unmarked) gave an Inhibition % of 10.8%. `C=CC(=O)N1CCCN(c2ccccn2)CC1` was tested, and the Inhibition % was 12.3%. In the case of `COC(Cc1cccc(F)c1)OC`, the Inhibition % is reported as 15.9%. `O=C(Nc1ccc(Cl)cc1)N1CCCCC1C1OCCO1` (centres unmarked) gave an Inhibition % of 5.3%. Molecule `Cc1cc(B2OC(C)(C)C(C)(C)O2)sn1` has an Inhibition % of 0.986%.

Source: paper PMC9574860, “Chemical Toolkit for PARK7: Potent, Selective, and High-Throughput” (Journal of Medicinal Chemistry, 2022)
